#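 Test compounds were applied to cells in 96-well plates for 48 hours at 5 doses. The concentration for 50% growth inhibition is given as GI50.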 The source made the active and inactive calls. No stated cut-off is given here; in the data, active = GI50 up to about 1.1 µM and inactive = higher.
# System: NCI-H322M
# Assay: DTP human tumour cell line panel, 48 h
row,Compound,GI50
1,O=C(O)c1ccccc1Sc1ccc(C=C2NC(=S)N(c3ccccc3)C2=O)s1,inactive: > 100 µM
2,CCOC(=O)CC(=O)C(=O)NN=C1NCCCN1,inactive: > 100 µM
3,CCOC(=O)CNC(=O)C(CSC(=O)N(C)O)NC(=O)CCC(N)C(=O)O (configuration not stated),inactive: 458 µM
4,COc1cccc2cc(C)c(C(=O)c3ccccc3)nc12,inactive: > 100 µM
5,O=C(O)CS [THIOGLYCOLIC ACID],inactive: > 100 µM
6,Cc1cc(=O)oc2c(CNC(C)C(=O)O)c(O)ccc12 (configuration not stated),inactive: > 100 µM
7,COC(=O)C1=C(c2cc(OC)c(OC)c(OC)c2)OC(c2ccc(OC)c(OC)c2)C1 (configuration not stated),inactive: 88.3 µM
8,CC(C)(SCc1ccccc1)C(N)C(=O)O (configuration not stated),inactive: > 100 µM
9,CC(=O)c1ccc2c(c1)oc(=O)n2CCN1CCCCC1,inactive: > 100 µM
10,COc1ccc(-c2nc3ccc(C)cc3o2)c(OC)c1,inactive: 4.23 µM
11,O=C(c1cccc(F)c1F)N1CCc2c([nH]c3ccccc23)C1c1ccc2c(c1)OCO2 (configuration not stated),inactive: 10.1 µM
12,CC(C)/C(Cl)=N\OC(=O)Nc1ccc(C#N)cc1,inactive: 17.7 µM
13,O=C1c2cccc(NCCNCCO)c2C(=O)c2cccc(NCCNCCO)c21,active: 0.459 µM
14,Cc1cc(C)c2c(O)cc(-c3cccc4ccccc34)nc2n1,inactive: 1.87 µM
15,CCOC(=O)N1CCN(Cc2cc(=O)n3ccc(C)cc3n2)CC1,inactive: > 100 µM
16,OC1[C@@H]2[C@@H](O)[C@H](O)[C@@H](O)N2C[C@@H]1O (some centres not stated),inactive: > 100 µM
17,Cc1ccc(-n2nnc(C(N)=O)c2O)cc1,inactive: > 100 µM
18,Cc1cc(/C=C/c2cc[n+](C)c3ccccc23)c(O)c2ncccc12,inactive: 2.14 µM
19,NC(Cc1c[nH]c2ccc([N+](=O)[O-])cc12)C(=O)O (configuration not stated),inactive: > 100 µM
20,[N-]=[N+]=NC1C(Cl)C(=O)NC(=O)N1[C@H]1C[C@H](O)[C@@H](CO)O1 (some centres not stated),inactive: > 100 µM
21,CC(=O)O[C@H]1C(=O)[C@@]2(C)C(C(OC(=O)c3ccccc3)C3[C@@H](O)C(OC(=O)[C@@H](O)[C@H](NC(=O)c4ccccc4)c4ccc(C(F)(F)F)cc4)C(C)=C1C3(C)C)[C@]1(OC(C)=O)CO[C@@H]1C[C@@H]2O (some centres not stated),inactive: > 25 µM
22,Cc1cc2c(C(C)C)c(O)c(O)c(/C=N/c3ccccc3)c2c(O)c1-c1c(C)cc2c(C(C)C)c(O)c(O)c(/C=N/c3ccccc3)c2c1O,inactive: > 100 µM
23,CCc1n[nH]c(=O)n1N1C(=O)C2CC=CCC2C1=O (configuration not stated),inactive: > 100 µM
24,O=C(O)c1ccc([N+](=O)[O-])c2cc3cnccc3nc12,inactive: 36.6 µM

row,Compound,GI50
1,CN(C)CCNC(=O)c1cccc2nc3c(Cl)cccc3nc12,inactive: 5.26 µM
2,CCOC(=O)c1sc2nc(SC)nc3c2c1NCN3c1ccc(F)c(F)c1,inactive: > 23.7 µM
3,O=c1ccc2[n+]([O-])c3ccc(O)cc3oc-2c1 [RESAZURIN],inactive: 22.9 µM
4,N#CC1CC(c2ccccc2)Nc2cc(Cl)ccc2N1 (configuration not stated),inactive: 64.7 µM
5,CN(C)c1ccc(/C=N/C23CC4CC(CC(C4)C2)C3)cc1,inactive: > 100 µM
6,COc1cccc(N(CN2C(=O)CCC2OC)C(C)=O)c1 (configuration not stated),inactive: > 100 µM
7,O=C(Nc1ccccc1)c1cc2cc(CCl)ccc2oc1=O,inactive: > 100 µM
8,CCCCCC/C=C\CCCCCCCCCc1cccc(O)c1C(=O)O [GINKGOLIC ACID 17:1],inactive: > 100 µM
9,COc1cc(NC(C)=O)ccc1C(=O)N/N=C/c1ccc(Cl)cc1Cl,inactive: 44 µM
10,CC(C)(C)C(=O)Oc1ccc(/C=C/C(=O)c2ccc(OC(=O)C(C)(C)C)cc2)cc1,inactive: > 100 µM
11,O=[N+]([O-])c1ccc2c(c1)nc1n2C(c2c(F)cccc2F)SC1 (configuration not stated),inactive: > 100 µM
12,O=Cc1cccc2c1Oc1c(cccc1C(=O)O)S2,inactive: 50.5 µM
13,COc1cccc(NC(=O)CC(=O)Nc2cccc(OC)c2)c1,inactive: > 100 µM
14,COC1OC(COCc2ccc(Cl)cc2)C(OCc2ccc(Cl)cc2)C1N=[N+]=[N-] (configuration not stated),inactive: > 100 µM
15,CC1CC[C@@H](C(C)C)[C@H](Oc2nnc(C3OC(CO)C(O)C3O)o2)C1 (some centres not stated),inactive: > 100 µM
16,C#CCNC(CCCNC(=N)N)C(=O)O (configuration not stated),inactive: > 100 µM
17,c1ccc(/C(=N/Nc2cnccn2)c2ncccn2)cc1,inactive: 20.7 µM
18,CC(C)Sc1nncc(/C(N)=N/O)n1,inactive: > 100 µM
19,O=C(Nc1cc(Cl)cc(Cl)c1)/C(Cc1nc2ccccc2nc1O)=N/NC(=O)c1ccncc1,inactive: > 100 µM
20,COc1ccc(N2C(=O)C3c4[nH]c5ccccc5c4C4c5ccccc5CC4C3C2=O)cc1 (configuration not stated),inactive: > 100 µM
21,C[C@]12Cc3cn[nH]c3C(=O)C1CC[C@@H]1C2CC[C@@]2(C)C1CC[C@@H]2O (some centres not stated),inactive: > 100 µM
22,CC1CC[C@]2(C(=O)O)CCC3(C)C(=CC(=O)C4[C@@]5(C)CCC(=O)C(C)(C)C5CC[C@]43C)[C@@H]2[C@H]1C (some centres not stated),inactive: 27 µM
23,O=C(O)CCc1ccc2c(c1)C(=O)CC2,inactive: > 100 µM
